Results on 3 molecules are retold here after patent US20180030098A1 (NAVIGO PROTEINS, published 2018).

For assay [1], the target named is T1, Recombinant human EGFR-Fc Chimera (R&D Systems, catalog no. 344-ER-050) (human, UniProt P00533 25-645).
T1 construct: range 1-645; Bought reagent; Immobilised on the CM5 chip for SPR; also called hEGFR-Fc; not shown: Fc region of human IgG1, fused at the C-terminus
Description: SPR (Biacore) on immobilised hEGFR-Fc. A general note: SPR reads the build-up and loss of mass on a sensor chip optically.

In assay [2] the target is T1, Recombinant human EGFR-Fc Chimera (R&D …). Description: SPR (Biacore 3000), immobilised EGFR-Fc.
Assay [3] has the same target. Description: SPR (Biacore) on immobilised hEGFR-Fc. The source holds these as a separate data set.
Assay [4] has as its target T2, human EGFR expressed on cells (human, UniProt P00533 25-1210).
T2 construct: whole, on cells; One entry for EGFR on cells: exogenous in CHO-K1, endogenous in A549, A431 and MDA-MB-231; The cell is named under assay in each row; also called cellular EGFR; surface-exposed EGFR
Description: immunocytochemistry on A431 cells.

B1: Affilin 138840 (designed binder)
chain: MVIWVHTLTGKTITLEVEPSDTIENVKAKIQDKEGIPPDQQRLIWAGKQLEDGRTLSDYNINFKLSLHLVLRLRAAGIGMQIFVHTQTGKTITLEVEPSDTIENVKAKIQDKEGIPPDQQRLIWAGKQLEDGRTLSDYNIGWQAPLHLVLRLRAA
notes: Affilin of two ubiquitin moieties, without PDI motif
By Kd is commonly meant the equilibrium constant for the complex coming apart. B1: the Kd in assay [1] worked out at 5700 nM.

B2: Affilin 139791 (designed binder)
chain: MQIFVKTLTPWRGYDGKTITLEVEPSDTIENVKAKIQDKEGIPPDQQRLIWAGKQLEDGRTLSDYNIRRVDVLHLVLRLRAA
notes: Ubiquitin mutein, cartridge (PWRGYD)RRVDV; Strep-tag detection
As usually defined, the koff is the first-order rate constant of dissociation. By kon is commonly meant the second-order rate constant of association. Take B2: in assay [2], the Kd was 256 nM, the koff was 0.00102 s⁻¹ and the kon turned out to be 3980 M⁻¹ s⁻¹. For the same molecule, the Kd in assay [3] was 175 nM.

B3: Affilin 139820 (designed binder)
chain: MQIFVKTLTPWYGYDGKTITLEVEPSDTTENVKAKIQDKEGIPPDQQRLIWAGKQLEDGRTLSDYNITTVDILHLVLRLRAA
With B3, the binding result in assay [4] was “binds”.
